# These are yes or no findings as the source states them, for the method shown. For some of these results: Binding seen in cells or lysates may run through a third protein. Some results given as binding are weak or reduced against the parent protein; the word gives no strength. Where a sequence is shown, tags or fusion partners need not be part of it.
# Sequences of proteins named here, by UniProt entry; tags and fusion partners are left off. A change or cut given only in a name is not applied to a line headed by its entry.
# UniProt P62993: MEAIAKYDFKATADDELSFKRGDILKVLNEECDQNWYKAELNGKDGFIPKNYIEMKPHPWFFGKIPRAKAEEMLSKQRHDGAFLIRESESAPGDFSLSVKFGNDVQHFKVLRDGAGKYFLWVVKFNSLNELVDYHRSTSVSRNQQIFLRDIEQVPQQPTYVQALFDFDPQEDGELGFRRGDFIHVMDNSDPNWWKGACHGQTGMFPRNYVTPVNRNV
# T1: GST-GrpL (UniProt O75791)
# T1 sequence: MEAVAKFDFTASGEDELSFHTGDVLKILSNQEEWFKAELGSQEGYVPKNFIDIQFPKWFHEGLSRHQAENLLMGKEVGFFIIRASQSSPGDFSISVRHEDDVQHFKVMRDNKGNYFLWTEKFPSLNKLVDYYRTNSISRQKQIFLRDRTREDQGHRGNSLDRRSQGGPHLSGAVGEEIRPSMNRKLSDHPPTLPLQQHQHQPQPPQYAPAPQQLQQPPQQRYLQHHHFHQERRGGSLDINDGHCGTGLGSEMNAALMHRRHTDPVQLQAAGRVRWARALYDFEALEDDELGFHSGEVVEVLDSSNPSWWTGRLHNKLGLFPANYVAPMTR
# How the values were obtained:
# GST-GrpL = target: T1, GST-GrpL; experiment: pull-down; GST, GST-Grb2 or GST-GrpL pre-adsorbed to glutathione-Sepharose beads, incubated 1 h at 4°C with lysates of transfected HEK293T cells (NP-40 lysis buffer, 150 mM NaCl, pH 8.0); five washes; Western blot with anti-GFP; only the target purified
# [1] = target: LexA DNA-binding domain fusion of full length human HD-PTP (bait, pBridgeLexA-HD-PTP) (human) (UniProt Q9H3S7); experiment: two-hybrid; S. cerevisiae L40; bait LexA DNA-binding domain fusion of full length HD-PTP, preys GAL4 activation domain fusions (human colon cDNA library in pGAD-DS, and co-transformed single preys); HIS3 growth on SD-Trp-Leu-His-Met and beta-galactosidase filter assay; v-Src expressed without Met
# [2] = target: EGFP-HD-PTP, full length (human) (UniProt Q9H3S7); experiment: co-IP; HEK293T cotransfected with EGFP-HD-PTP and Myc-GrpL (NP-40 lysis buffer) or HA-Grb2 (HEPES lysis buffer, 1% Triton X-100); anti-GFP antibodies and Protein A-Sepharose overnight at 4°C; blot with anti-Myc or anti-HA
# GST-Grb2 = GST-Grb2 (UniProt P62993); experiment: pull-down; GST, GST-Grb2 or GST-GrpL pre-adsorbed to glutathione-Sepharose beads, incubated 1 h at 4°C with lysates of transfected HEK293T cells (NP-40 lysis buffer, 150 mM NaCl, pH 8.0); five washes; Western blot with anti-GFP; only the target purified
binding (GST-GrpL),binding [1],binding [2],binding (GST-Grb2),Molecule
binds,–,–,–,EGFP-ΔPEST (HD-PTP lacking amino acid residues 1508-1595) (from UniProt Q9H3S7 1-1636)
–,binds,–,–,GAL4 activation domain fusion of the C-terminal half of Grb2 (amino acid residues 114-217) (from UniProt P62993 114-217) (domain or fragment)
binds,–,–,–,"EGFP-ΔBro1 (705-1636) (domain or fragment, UniProt Q9H3S7 705-1636) QQLLDRELKKKPPPRPTAPKPLLPRREESEAVEAGDPPEELRSLPPDMVAGPRLPDTFLGSATPLHFPPSPFPSSTGPGPHYLSGPLPPGTYSGPTQLIQPRAPGPHAMPVAPGPALYPAPAYTPELGLVPRSSPQHGVVSSPYVGVGPAPPVAGLPSAPPPQFSGPELAMAVRPATTTVDSIQAPIPSHTAPRPNPTPAPPPPCFPVPPPQPLPTPYTYPAGAKQPIPAQHHFSSGIPAGFPAPRIGPQPQPHPQPHPSQAFGPQPPQQPLPLQHPHLFPPQAPGLLPPQSPYPYAPQPGVLGQPPPPLHTQLYPGPAQDPLPAHSGALPFPSPGPPQPPHPPLAYGPAPSTRPMGPQAAPLTIRGPSSAGQSTPSPHLVPSPAPSPGPGPVPPRPPAAEPPPCLRRGAAAADLLSSSPESQHGGTQSPGGGQPLLQPTKVDAAEGRRPQALRLIERDPYEHPERLRQLQQELEAFRGQLGDVGALDTVWRELQDAQEHDARGRSIAIARCYSLKNRHQDVMPYDSNRVVLRSGKDDYINASCVEGLSPYCPPLVATQAPLPGTAADFWLMVHEQKVSVIVMLVSEAEMEKQKVARYFPTERGQPMVHGALSLALSSVRSTETHVERVLSLQFRDQSLKRSLVHLHFPTWPELGLPDSPSNLLRFIQEVHAHYLHQRPLHTPIIVHCSSGVGRTGAFALLYAAVQEVEAGNGIPELPQLVRRMRQQRKHMLQEKLHLRFCYEAVVRHVEQVLQRHGVPPPCKPLASASISQKNHLPQDSQDLVLGGDVPISSIQATIAKLSIRPPGGLESPVASLPGPAEPPGLPPASLPESTPIPSSSPPPLSSPLPEAPQPKEEPPVPEAPSSGPPSSSLELLASLTPEAFSLDSSLRGKQRMSKHNFLQAHNGQGLRATRPSDDPLSLLDPLWTLNKT"
no binding,–,–,no binding,"EGFP-V-domain (401-700) (domain or fragment, UniProt Q9H3S7 401-700) MQLDPETVDNLDAYSHIPPQLMEKCAALSVRPDTVRNLVQSMQVLSGVFTDVEASLKDIRDLLEEDELLEQKFQEAVGQAGAISITSKAELAEVRREWAKYMEVHEKASFTNSELHRAMNLHVGNLRLLSGPLDQVRAALPTPALSPEDKAVLQNLKRILAKVQEMRDQRVSLEQQLRELIQKDDITASLVTTDHSEMKKLFEEQLKKYDQLKVYLEQNLAAQDRVLCALTEANVQYAAVRRVLSDLDQKWNSTLQTLVASYEAYEDLMKKSQEGRDFYADLESKVAALLERTQSTCQAR"
–,binds,–,–,"Activation Domain (AD)-GrpL, full length GrpL fused with the Gal4 activation domain (protein, UniProt O75791 1-330) MEAVAKFDFTASGEDELSFHTGDVLKILSNQEEWFKAELGSQEGYVPKNFIDIQFPKWFHEGLSRHQAENLLMGKEVGFFIIRASQSSPGDFSISVRHEDDVQHFKVMRDNKGNYFLWTEKFPSLNKLVDYYRTNSISRQKQIFLRDRTREDQGHRGNSLDRRSQGGPHLSGAVGEEIRPSMNRKLSDHPPTLPLQQHQHQPQPPQYAPAPQQLQQPPQQRYLQHHHFHQERRGGSLDINDGHCGTGLGSEMNAALMHRRHTDPVQLQAAGRVRWARALYDFEALEDDELGFHSGEVVEVLDSSNPSWWTGRLHNKLGLFPANYVAPMTR"
–,–,binds,–,"Myc-GrpL (protein, UniProt O75791 1-330) MEAVAKFDFTASGEDELSFHTGDVLKILSNQEEWFKAELGSQEGYVPKNFIDIQFPKWFHEGLSRHQAENLLMGKEVGFFIIRASQSSPGDFSISVRHEDDVQHFKVMRDNKGNYFLWTEKFPSLNKLVDYYRTNSISRQKQIFLRDRTREDQGHRGNSLDRRSQGGPHLSGAVGEEIRPSMNRKLSDHPPTLPLQQHQHQPQPPQYAPAPQQLQQPPQQRYLQHHHFHQERRGGSLDINDGHCGTGLGSEMNAALMHRRHTDPVQLQAAGRVRWARALYDFEALEDDELGFHSGEVVEVLDSSNPSWWTGRLHNKLGLFPANYVAPMTR"
no binding,–,–,no binding,"EGFP-Bro1-V (1-704) (domain or fragment, UniProt Q9H3S7 1-704) MEAVPRMPMIWLDLKEAGDFHFQPAVKKFVLKNYGENPEAYNEELKKLELLRQNAVRVPRDFEGCSVLRKYLGQLHYLQSRVPMGSGQEAAVPVTWTEIFSGKSVAHEDIKYEQACILYNLGALHSMLGAMDKRVSEEGMKVSCTHFQCAAGAFAYLREHFPQAYSVDMSRQILTLNVNLMLGQAQECLLEKSMLDNRKSFLVARISAQVVDYYKEACRALENPDTASLLGRIQKDWKKLVQMKIYYFAAVAHLHMGKQAEEQQKFGERVAYFQSALDKLNEAIKLAKGQPDTVQDALRFTMDVIGGKYNSAKKDNDFIYHEAVPALDTLQPVKGAPLVKPLPVNPTDPAVTGPDIFAKLVPMAAHEASSLYSEEKAKLLREMMAKIEDKNEVLDQFMDSMQLDPETVDNLDAYSHIPPQLMEKCAALSVRPDTVRNLVQSMQVLSGVFTDVEASLKDIRDLLEEDELLEQKFQEAVGQAGAISITSKAELAEVRREWAKYMEVHEKASFTNSELHRAMNLHVGNLRLLSGPLDQVRAALPTPALSPEDKAVLQNLKRILAKVQEMRDQRVSLEQQLRELIQKDDITASLVTTDHSEMKKLFEEQLKKYDQLKVYLEQNLAAQDRVLCALTEANVQYAAVRRVLSDLDQKWNSTLQTLVASYEAYEDLMKKSQEGRDFYADLESKVAALLERTQSTCQAREAAR"

# The next lines start with the molecule.
Molecule,binding (GST-GrpL),binding [1],binding [2],binding (GST-Grb2)
HA-Grb2 (from UniProt P62993 1-217),–,–,binds,–
"EGFP-HD-PTP, full length (from UniProt Q9H3S7 1-1636)",binds,–,–,binds
"EGFP-VHD (401-1128) (domain or fragment, UniProt Q9H3S7 401-1128) MQLDPETVDNLDAYSHIPPQLMEKCAALSVRPDTVRNLVQSMQVLSGVFTDVEASLKDIRDLLEEDELLEQKFQEAVGQAGAISITSKAELAEVRREWAKYMEVHEKASFTNSELHRAMNLHVGNLRLLSGPLDQVRAALPTPALSPEDKAVLQNLKRILAKVQEMRDQRVSLEQQLRELIQKDDITASLVTTDHSEMKKLFEEQLKKYDQLKVYLEQNLAAQDRVLCALTEANVQYAAVRRVLSDLDQKWNSTLQTLVASYEAYEDLMKKSQEGRDFYADLESKVAALLERTQSTCQAREAARQQLLDRELKKKPPPRPTAPKPLLPRREESEAVEAGDPPEELRSLPPDMVAGPRLPDTFLGSATPLHFPPSPFPSSTGPGPHYLSGPLPPGTYSGPTQLIQPRAPGPHAMPVAPGPALYPAPAYTPELGLVPRSSPQHGVVSSPYVGVGPAPPVAGLPSAPPPQFSGPELAMAVRPATTTVDSIQAPIPSHTAPRPNPTPAPPPPCFPVPPPQPLPTPYTYPAGAKQPIPAQHHFSSGIPAGFPAPRIGPQPQPHPQPHPSQAFGPQPPQQPLPLQHPHLFPPQAPGLLPPQSPYPYAPQPGVLGQPPPPLHTQLYPGPAQDPLPAHSGALPFPSPGPPQPPHPPLAYGPAPSTRPMGPQAAPLTIRGPSSAGQSTPSPHLVPSPAPSPGPGPVPPRPPAAEPPPCLRRGAAAADLLSSSPESQH",binds,–,–,binds
"EGFP-HD (705-1128) (domain or fragment, UniProt Q9H3S7 705-1128) QQLLDRELKKKPPPRPTAPKPLLPRREESEAVEAGDPPEELRSLPPDMVAGPRLPDTFLGSATPLHFPPSPFPSSTGPGPHYLSGPLPPGTYSGPTQLIQPRAPGPHAMPVAPGPALYPAPAYTPELGLVPRSSPQHGVVSSPYVGVGPAPPVAGLPSAPPPQFSGPELAMAVRPATTTVDSIQAPIPSHTAPRPNPTPAPPPPCFPVPPPQPLPTPYTYPAGAKQPIPAQHHFSSGIPAGFPAPRIGPQPQPHPQPHPSQAFGPQPPQQPLPLQHPHLFPPQAPGLLPPQSPYPYAPQPGVLGQPPPPLHTQLYPGPAQDPLPAHSGALPFPSPGPPQPPHPPLAYGPAPSTRPMGPQAAPLTIRGPSSAGQSTPSPHLVPSPAPSPGPGPVPPRPPAAEPPPCLRRGAAAADLLSSSPESQH",binds,–,–,binds
"GAL4 activation domain fusion of the C-terminal SH3 domain of GrpL (amino acid residues 254-330) (domain or fragment, UniProt O75791 254-330) AALMHRRHTDPVQLQAAGRVRWARALYDFEALEDDELGFHSGEVVEVLDSSNPSWWTGRLHNKLGLFPANYVAPMTR",–,binds,–,–
"EGFP-PTPc (1171-1475) (domain or fragment, UniProt Q9H3S7 1171-1475) LRQLQQELEAFRGQLGDVGALDTVWRELQDAQEHDARGRSIAIARCYSLKNRHQDVMPYDSNRVVLRSGKDDYINASCVEGLSPYCPPLVATQAPLPGTAADFWLMVHEQKVSVIVMLVSEAEMEKQKVARYFPTERGQPMVHGALSLALSSVRSTETHVERVLSLQFRDQSLKRSLVHLHFPTWPELGLPDSPSNLLRFIQEVHAHYLHQRPLHTPIIVHCSSGVGRTGAFALLYAAVQEVEAGNGIPELPQLVRRMRQQRKHMLQEKLHLRFCYEAVVRHVEQVLQRHGVPPPCKPLASASIS",no binding,–,–,no binding
